PubChem BioAssay AID686979 (National Center for Advancing Translational Sciences (NCATS), 2013)
Several values for one entry are separate records, joined by “and”; a condition that tells them apart may be missing. Equal entries are not always repeated. In all, about 420,000 compounds went through this assay and about 50,000 (12%) were called active. Inconclusive results, whose numbers are uncertain, are shown with a selection of clear calls. Calls come from the whole dose curve; as a rule, active = well fitted inhibition curve with a large enough effect; inconclusive = small, poorly fitted or top-dose-only effect; inactive = flat fitted curve, though single readings scatter. Potencies of inconclusive entries are doubtful fits and often do not repeat.

Experiment: qHTS for Inhibitors of human tyrosyl-DNA phosphodiesterase 1 (TDP1): qHTS in cells in presence of CPT; note: nearly all actives have a fitted effect of over 55% in size
Conditions: chicken DT40 Tdp1-/-;hTDP1 cells + 20 nM CPT, ATP luminescence, 48 h; activity change, negative = growth inhibition: at 46.2 µM (top of the series) unless noted
How it was run: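 Cell growth measured by CellTiter-Glo luminescence after a minimum 48 h, 37 C compound exposure with 20 nM CPT in Tdp1-knockout DT40 cells stably expressing hTDP1, seeded 400/well; qHTS titration format.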
% is set by controls: 0 for no effect and ±100 for the full control effect; potency is the fitted concentration of half-maximal effect; tags give direction and shape of the fitted curve.

SMILES	Potency	activity change, negative = growth inhibition
CC(C)n1c(=O)c2ccccc2n1C(=O)c1ccccc1	inconclusive: 23.1 µM [inhibitor, partial curve, poor fit]	–
O=C(CCCn1c(SCc2ccccc2F)nc2ccccc2c1=O)NCC1CCCO1 (stereo unspecified)	–	inactive: -5.89%
CCCS(=O)(=O)NC(=O)C1(C)CCN(C(=O)c2ccc(C(=O)OC)cc2)C1 (stereo unspecified)	–	inactive: 2.07%
COc1cc(C(CC(=O)NCc2ccc(F)cc2)N2Cc3ccccc3C2=O)cc(OC)c1OC (stereo unspecified)	inconclusive: 29.1 µM [inhibitor, single point]	–
CCCCN(C)c1nc2c(S(=O)(=O)c3ccc(CC)cc3)nnn2c2ccc(Cl)cc12	active: 11.6 µM	–
COc1ccccc1NC(=O)C1=C(C)Nc2c(C(=O)Nc3ccc(F)cc3)cnn2C1c1cccc([N+](=O)[O-])c1 (stereo unspecified)	inconclusive: 29.1 µM [inhibitor, single point]	–
Cc1ccc([C@H]2C(C(=O)O)=CC[C@@H](c3ccc(Cl)cc3)N2S(=O)(=O)c2ccc(C)cc2)cc1	inconclusive: 25.9 µM [inhibitor, single point]	–
Cc1cccc(OCCCC(=O)Nc2nc3ccccc3[nH]2)c1	–	inactive: 0.287%
CCOC(=O)O[C@]1(C(=O)COC(=O)CC)CC[C@H]2[C@@H]3CCC4=CC(=O)C=C[C@]4(C)[C@H]3[C@@H](O)C[C@@]21C	inactive and inconclusive: 12.8 µM [inhibitor, single point]	–
Cc1ccc(NC(=O)CCS(=O)(=O)c2ccccc2)cc1S(=O)(=O)N1CCOCC1	–	inactive: 8.04%
CCCCc1n[nH]c2c1/C(=N/O)CC(c1ccccc1)C2 (stereo unspecified)	inconclusive: 20.6 µM [inhibitor, single point]	–
Cc1cc(C)c2sc(N(CCCN(C)C)C(=O)c3ccc(Br)s3)nc2c1	inconclusive: 29.1 µM [inhibitor, single point]	–
CCN(CC)C(=O)C1=C(C)N(CCCN2CCCC2=O)C(=O)C(CC(=O)NC2CCCC2)C1 (stereo unspecified)	–	inactive: -7.19%
COc1ccc(C(=O)N=C2SC3CS(=O)(=O)CC3N2c2ccc(N(C)C)cc2)cc1OC (stereo unspecified)	–	inactive: -21.2%
Cc1ccc2nsnc2c1NC(=O)COc1ccccc1F	–	inactive: 13.6%
CCOc1ccc(S(=O)(=O)Nc2cccc(C(=O)NCC3CCCO3)c2)cc1 (stereo unspecified)	inconclusive: 29.1 µM [inhibitor, single point]	–
COc1ccccc1CCNC(=O)C(=O)NCC1OCCN1S(=O)(=O)c1ccc([N+](=O)[O-])cc1 (stereo unspecified)	inconclusive: 20.6 µM [inhibitor, single point]	–
CCOC(=O)C1CCCN(C(=O)CCn2nnnc2CN2CCOCC2)C1 (stereo unspecified)	–	inactive: 2.66%

SMILES	Potency	activity change, negative = growth inhibition
COc1ccc(C(F)(F)F)cc1NC(=O)c1sc2nc(-c3cccs3)ccc2c1N	inconclusive: 18.4 µM [inhibitor, single point]	–
CC(=O)c1ccc(N2CCN(c3ncnc4c3c(-c3ccccc3)cn4-c3cccc(C)c3)CC2)cc1	–	inactive: -14.2%
CC1CCCN(C(=O)CSc2nnc(-c3c[nH]c4ccccc34)o2)C1 (stereo unspecified)	inconclusive: 16.4 µM [inhibitor, partial curve, poor fit]	–
COc1ccc(Cl)cc1NC(=S)NC(=O)c1ccco1	inconclusive: 29.1 µM [inhibitor, single point]	–
Cc1cnc(C(=O)N(c2ccc(N3CCOCC3)cc2)C2C(=O)Nc3ccccc3N=C2c2ccc(F)cc2)cn1 (stereo unspecified)	–	inactive: -6.99%
CCOC(=O)C1(Cc2ccc(Cl)cc2)CCN(C(=O)c2cnc(C)cn2)CC1	inconclusive: 29.1 µM [inhibitor, single point]	–
C[C@H](CO)N1C[C@H](C)[C@@H](CN(C)C)Oc2c(NC(=O)CCCCCC(=O)Nc3ccccc3N)cccc2C1=O	active: 18.4 µM	–
Cn1c(C(=O)NCCN2CCN(Cc3ccccc3)CC2)cc2c(=O)n(C)c3ccccc3c21	active: 23.1 µM	–
COc1ccc(C2CC(=O)c3cc(-c4nc(-c5cccc(Cl)c5)cs4)c(=O)[nH]c3C2)cc1OC (stereo unspecified)	inconclusive: 7.31 µM [inhibitor, partial curve]	–
Cc1nc(NC(=O)c2ccccc2)sc1Cc1ccc2c(c1)OCO2	inconclusive: 29.1 µM [inhibitor, single point]	–
CCN(CC)c1ccc(C2C(C(=O)Nc3ccccn3)=C(C)NC3=C2C(=O)CC(C)(C)C3)cc1 (stereo unspecified)	inconclusive: 13 µM [inhibitor, partial curve]	–
N#C[C@]1(S(=O)(=O)c2ccccc2)C[C@@H]2ON=C(c3cccc(Br)c3)[C@@H]2C1	active: 9.2 µM	–
CCOc1ccc(NC(=O)c2ccc(NC(=O)N3CCSc4ncccc43)cc2)cc1	–	inactive: -20.3%
CN1C(c2ccccc2)CCOS1(=O)=O (stereo unspecified)	inconclusive: 29.1 µM [inhibitor, single point]	–
CCc1n[nH]c(=S)n1/N=C/c1ccc(N(CC)CC)cc1	inconclusive: 32.6 µM [inhibitor, single point]	–
Cc1cccc(N2CCN(c3ncnc4c3nc3n4CCCCC3)CC2)c1C	active: 25.9 µM	–
c1ccc2nc3c(nc2c1)[nH]c1ccccc13	inconclusive: 29.1 µM [inhibitor, single point]	–
CC(C)OC(=O)CC1C(=O)NCCN1C(=S)NC(=O)c1cccs1 (stereo unspecified)	–	inactive: 10.2%
